Experimental findings from a collection of fitness landscapes (doi:10.1126/science.1257360) are described below.

This is one part of the list.

First the molecules themselves.
B1: PhoQ; a variant is named by its letters at X, in order, P23837 (parent)
chain: MKKLLRLFFPLSLRVRFLLATAAVVLVLSLAYGMVALIGYSVSFDKTTFRLLRGESNLFYTLAKWENNKLHVELPENIDKQSPTMTLIYDENGQLLWAQRDVPWLMKMIQPDWLKSNGFHEIEADVNDTSLLLSGDHSIQQQLQEVREDDDDAEMTHSVAVNVYPATSRMPKLTIVVVDTIPVELKSSYMVWSWFIYVLSANLLLVIPLLWVAAWWSLRPIEALAKEVRELEEHNRELLNPATTRELTSLVRNLNRLLKSERERYDKYRTTLTDLTHSLKTPLXXLQXXLRSLRSEKMSVSDAEPVMLEQISRISQQIGYYLHRASMRGGTLLSRELHPVAPLLDNLTSALNKVYQRKGVNISLDISPEISFVGEQNDFVEVMGNVLDNACKYCLEFVEISARQTDEHLYIVVEDDGPGIPLSKREVIFDRGQRVDTLRPGQGVGLAVAREITEQYEGKIVAGESMLGGARMEVIFGRQHSAPKDE

Variants of B1 are the subject of this assay. Description: enrichment ratio after two sorts for PhoP signalling (ratio (wild type AVST 3.29)); higher = more functional. The conditions noted are these: with PhoP (E. coli).
Regarding QCLC, the enrichment ratio is 3.24. Turning to QSED, the enrichment ratio is not above 0.25. With FGVL, the enrichment ratio was 4.55. In the case of EVHL, the enrichment ratio was not above 0.25.

Consider CCLH, for which the enrichment ratio is not above 0.25. For MGDK, the enrichment ratio is not above 0.25. As for TCCY, the figure is 9.75; as for MHVV, not above 0.25; as for HTKK, not above 0.25. Consider NPAK, for which the enrichment ratio is not above 0.25.

In the case of ERHI, the enrichment ratio is not above 0.25. As for PMSC, the figure is not above 0.25. In the case of PKCS it was not above 0.25; in that of NEWW, not above 0.25. Take QESR: the enrichment ratio is not above 0.25.

Regarding HNGG, the enrichment ratio was not above 0.25.

With VEMR, the enrichment ratio was not above 0.25.

With HAWD, the enrichment ratio was not above 0.25. As for WVKP, the figure is not above 0.25.

For LKFR, the enrichment ratio was not above 0.25. Consider THNC, for which the enrichment ratio was 11.9. As for EAVQ, the figure is not above 0.25. As for FICS, the enrichment ratio was not above 0.25. Take GKYQ: the enrichment ratio was not above 0.25. In the case of DIDP it was not above 0.25; in that of HNKW, not above 0.25; in that of PRHQ, not above 0.25.

For SIVY, the enrichment ratio is not above 0.25. As for AIHN, the figure is not above 0.25; as for RRHH, not above 0.25; as for GSFK, not above 0.25. Consider TFMH, for which the enrichment ratio was not above 0.25. On to CSYK, for which the enrichment ratio was not above 0.25.

For ANPV, the enrichment ratio was not above 0.25. For RMLP, the enrichment ratio is not above 0.25.

With TDKF, the enrichment ratio is not above 0.25. In the case of KLMQ it was not above 0.25; in that of HDQP, not above 0.25; in that of PTPG, not above 0.25. As to VLYL, the enrichment ratio was not above 0.25.

On to WSVC, for which the enrichment ratio is not above 0.25.

In the case of RHGC, the enrichment ratio is not above 0.25. With SFFV, the enrichment ratio was not above 0.25. Regarding REMC, the enrichment ratio is not above 0.25. For the variant AQLE, the enrichment ratio turned out to be 10.1. In the case of LWFF, the enrichment ratio is not above 0.25. As for VAWV, the figure is not above 0.25; as for RHTE, not above 0.25; as for MIDK, not above 0.25.

On to LCSR, for which the enrichment ratio was not above 0.25. Regarding WMNF, the enrichment ratio is not above 0.25. As for KERL, the figure is not above 0.25.

For the variant DSDF, the enrichment ratio is not above 0.25.

For the variant WMYQ, the enrichment ratio was not above 0.25.

Regarding IPRA, the enrichment ratio was not above 0.25. In the case of PVGK it was not above 0.25; in that of NRQY, not above 0.25. Regarding MFFL, the enrichment ratio is not above 0.25. As for PWSK, the figure is not above 0.25; as for EIGD, not above 0.25.

As to LLLQ, the enrichment ratio is not above 0.25. In the case of PIHW it was not above 0.25; in that of AWPL, not above 0.25. Take EFHG: the enrichment ratio is not above 0.25. Regarding RIDA, the enrichment ratio was not above 0.25.

As to WACP, the enrichment ratio is not above 0.25. As to LQRG, the enrichment ratio was not above 0.25. As for NEQH, the enrichment ratio is not above 0.25. As for YMYN, the figure is not above 0.25; as for SSEG, not above 0.25. Consider LLQG, for which the enrichment ratio was not above 0.25. Turning to FLDS, the enrichment ratio was not above 0.25. As for HQRQ, the figure is not above 0.25. As for DADT, the figure is not above 0.25; as for RFQG, not above 0.25.

Regarding IPSQ, the enrichment ratio is not above 0.25. In the case of QFWQ it was not above 0.25. For the variant HMYM, the enrichment ratio is not above 0.25. In the case of RLDD, the enrichment ratio is not above 0.25. As for YYHG, the enrichment ratio is not above 0.25. With RELR, the enrichment ratio is not above 0.25.

On to FCIL, for which the enrichment ratio was not above 0.25. Turning to KDAE, the enrichment ratio was not above 0.25.

Take LDDI: the enrichment ratio was not above 0.25. Turning to YVGM, the enrichment ratio was not above 0.25. In the case of GQIY it was not above 0.25; in that of WDIM, not above 0.25. In the case of TQYV it was not above 0.25; in that of AGMN, 4.66; in that of FQCL, not above 0.25. As for DITW, the figure is not above 0.25; as for AYDE, not above 0.25; as for MGPW, not above 0.25. For YAQI, the enrichment ratio is not above 0.25. KGYY: the enrichment ratio is not above 0.25. MEAK: the enrichment ratio is not above 0.25. In the case of NKNM it was not above 0.25. Regarding PHLH, the enrichment ratio is not above 0.25. On to NRQN, for which the enrichment ratio is not above 0.25. On to HRCC, for which the enrichment ratio is not above 0.25.

Consider PWIQ, for which the enrichment ratio is not above 0.25. Take FTGW: the enrichment ratio was not above 0.25. In the case of ILPW it was not above 0.25; in that of HTYL, not above 0.25.

As to TGRF, the enrichment ratio is not above 0.25.

AEPW: the enrichment ratio is not above 0.25. In the case of GWTC it was not above 0.25; in that of YSTN, 1.15; in that of ARVN, not above 0.25.

For FGEK, the enrichment ratio was not above 0.25. As for LWMS, the figure is not above 0.25. For HQCG, the enrichment ratio was not above 0.25. Turning to EHGF, the enrichment ratio was not above 0.25. As to THYC, the enrichment ratio is not above 0.25.

On to MLKL, for which the enrichment ratio is not above 0.25.

As to MCSS, the enrichment ratio was determined as 1.2. With YIVM, the enrichment ratio was not above 0.25. Regarding SEPC, the enrichment ratio is not above 0.25.

RYLK: the enrichment ratio worked out at 1.61. As for SMNV, the figure is not above 0.25.

For QMYT, the enrichment ratio was not above 0.25. Turning to DGGR, the enrichment ratio is not above 0.25. As for ERVK, the figure is not above 0.25.

PGRK: the enrichment ratio was not above 0.25. For the variant RCML, the enrichment ratio was not above 0.25. As for SETI, the figure is 19.9; as for DILI, not above 0.25; as for NHSV, not above 0.25.

In the case of TCWE, the enrichment ratio is not above 0.25. On to LVHR, for which the enrichment ratio is not above 0.25. For the variant MDLD, the enrichment ratio is not above 0.25. As for KAKP, the figure is not above 0.25; as for VMTF, not above 0.25; as for FQFA, not above 0.25. For AKFS, the enrichment ratio was not above 0.25. With TFDI, the enrichment ratio is not above 0.25. Regarding CVDP, the enrichment ratio was not above 0.25. In the case of SNFV, the enrichment ratio was not above 0.25. TLHQ: the enrichment ratio amounted to 2.24. In the case of SPEK it was not above 0.25; in that of ERVE, not above 0.25; in that of YIPK, not above 0.25. In the case of PGLC it was not above 0.25; in that of WRVA, not above 0.25.

As to KSSR, the enrichment ratio was not above 0.25. Consider TWAA, for which the enrichment ratio was not above 0.25. Turning to TYHI, the enrichment ratio is not above 0.25. As for SPNH, the enrichment ratio is not above 0.25. As for LRNE, the figure is not above 0.25; as for RSCD, not above 0.25; as for IHHH, not above 0.25.

In the case of SCTI, the enrichment ratio is 5.87.

FKHA: the enrichment ratio was not above 0.25.
